From article PMC6996395 (FASEB bioAdvances, 2019)

B1: CFTR R-region, wild type ([…]) (domain or fragment)
chain: not shown
B2: CFTR R-region R-S641A/T682A ([…]) (domain or fragment)
chain: not shown
B3: CFTR R-region R-S686A ([…]) (domain or fragment)
chain: not shown
B4: CFTR R-region R-S686D ([…]) (domain or fragment)
chain: not shown

Legend:
[1] = target: Split-CFTR back half (TMD2-NBD2-C-Term; aa 837-1480) (UniProt P13569 837-1480); assay: proximity ligation
[2] = target: Split-CFTR front half (N-term-TMD1-NBD1; aa 1-634) (UniProt P13569 1-634); assay: proximity ligation

Binder	CTCF of PLA signal (basal) [1]	CTCF of PLA signal (after PKA stimulation) [2]	CTCF of PLA signal (after PKC + PKA stimulation) [2]	CTCF of PLA signal (after PKC stimulation) [2]	CTCF of PLA signal (basal) [2]
B1	3.41	–	–	–	–
B2	11.8	4.24	13	9.26	1.45
B3	1.56	6.15	3.49	–	4.86
B4	–	6.75	–	4.54	–
